Hit rate of the full screen: of about 410,000 compounds, about 260 (0.063%) were called active. Inconclusive results, whose numbers are uncertain, are shown with a selection of clear calls. Calls come from the whole dose curve; as a rule, active = well fitted activation curve with a large enough effect; inconclusive = small, poorly fitted or top-dose-only effect; inactive = no such curve, though single readings can be large or run the other way. No potency is given beside an inconclusive call; the fits are too rough.
Experiment: qHTS for compounds that reverse cellular toxicity of Amyloid beta (A-beta) peptide in yeast: Primary Screen; note: nearly all actives have a fitted effect of over 55% in size
Conditions: yeast expressing A-beta42, growth rescue, OD600, 48 h; growth rescue: at 46.1 µM (top of the series), 0% DMSO, 100% iron-clioquinol control
Outline: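 Growth rescue measured by 600 nm absorbance after 48 h yeast culture at 30 C with compound. Values normalized between DMSO and an equimolar ferric chloride plus clioquinol control.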
Potency is the fitted concentration of half-maximal effect; tags give direction and shape of the fitted curve.

| SMILES | Potency | growth rescue |
| --- | --- | --- |
| O=C(Nc1ccc(Br)cc1)c1cc([N+](=O)[O-])cc([N+](=O)[O-])c1 | inconclusive [activator, partial curve] |  |
| CCOC(=O)c1cnc(-n2nc(C)cc2C)nc1NC1CCCCC1 | inconclusive [activator, single point] |  |
| CCc1cccc(C)c1NC(=O)CN(C)Cc1ccccc1F | inconclusive [activator, full curve, poor fit] |  |
| S=c1nc2c(n[nH]1)c1ccccc1n2CCc1ccccc1 | inconclusive [activator, partial curve] |  |
| CCc1ccc(S(=O)(=O)c2nnn3c2nc(Nc2ccc(NC(C)=O)cc2)c2sccc23)cc1 | inactive |  |
| O=C(CCCCCn1c(=O)[nH]c2ccccc2c1=O)N1CCN(Cc2ccc3c(c2)OCO3)CC1 | inconclusive [activator, partial curve, poor fit] |  |
| Cc1nc2ccc(NC(=O)CSc3ccccc3)cc2s1 | inconclusive [activator, single point] |  |
| O=C(CCCn1c(=O)c2cccn2c2ccccc21)NCCc1ccc(Cl)cc1 | inconclusive [activator, partial curve, poor fit] |  |
| COc1ccc(COC(=O)CCc2c[nH]c3ccccc23)cc1F | inconclusive [activator, partial curve, poor fit] |  |
| Cc1ccc(-n2c(SCc3ccccc3)nc3c([nH]c4ccccc43)c2=O)cc1 | inactive |  |
| C=CCc1cccc(/C=N/NC(=O)CNc2cccc3ccccc23)c1O | inconclusive [activator, single point] |  |
| O=C(NCc1ccccc1Cl)c1ccc2oc(=O)n(Cc3ccccc3)c2c1 | inactive |  |
| O=C(NC(=S)NCc1ccccc1)c1ccc2c(c1)OCO2 | inactive |  |
| S=C(NCCCc1ccccc1)Nc1ccccc1 | active: 20 µM |  |
| C/C(N)=C(/C#N)C(=O)CSc1nnc(Nc2c(C)cccc2C)s1 | inconclusive [activator, single point] |  |
| COc1ccc(/C(N)=N/OC(=O)Cc2cccs2)cc1 | inactive |  |
| Cc1cn([C@H]2C[C@H](O)[C@@H](CCC(=O)NC(c3ccccc3)c3ccccc3)O2)c(=O)[nH]c1=O | inactive |  |
| COc1cc(NC(=O)COC(=O)Cc2ccsc2)cc(OC)c1 | inconclusive [activator, partial curve, poor fit] |  |
| C/C(=N\NC(=S)NCc1ccccc1)c1ccc(Cl)cc1 | inconclusive [activator, full curve, poor fit] |  |
| CCOc1ccc(N(CC)C(=O)c2cc3c(s2)-c2ccccc2OC3)cc1 | inactive |  |
| COc1ccc(C(=O)CSc2n[nH]c(-c3ccncc3)n2)cc1[N+](=O)[O-] | inconclusive [activator, full curve] |  |
| COc1ccc(-c2csc(C(O)c3ccc(F)c(OC)c3)n2)cc1 (configuration not stated) | inconclusive [activator, partial curve] |  |
| Cc1ccc(SCCNC(=S)Nc2ccc(C)cc2C)cc1 | inconclusive [activator, single point] |  |
| Cc1cccc(C(=O)Nc2nnc(-c3cccnc3)o2)c1 | inconclusive [activator, partial curve, poor fit] |  |

| SMILES | Potency | growth rescue |
| --- | --- | --- |
| Cc1ccc2c(CSc3nncn3C)cc(=O)oc2c1C | inactive |  |
| Cc1ccc2c(c1)c(C)c(C)n2CC(O)Cn1nc(C)cc1C (configuration not stated) | inconclusive [activator, single point] |  |
| CN(C)CCNC(=O)CN1C(=O)COc2ccc(S(=O)(=O)N3CCCC3)cc21 | inactive |  |
| O=C(O)C(c1ccccc1)N1C(=O)/C(=C\c2ccc(-c3ccccc3Cl)o2)SC1=S (configuration not stated) | inactive |  |
| O=C(CC(=O)c1ccccn1)c1ccccc1 | inconclusive [activator, single point] |  |
| CC(C)Oc1ccc(/C=C/C(=O)NCC2COc3ccccc3O2)cc1 (configuration not stated) | inconclusive [activator, partial curve, poor fit] |  |
| CC(=O)Nc1ccc(N2C(=O)CSC2c2c(F)cccc2Cl)cc1 (configuration not stated) | inconclusive [activator, full curve, poor fit] |  |
| CCCCOc1ccc(CNC(=O)c2cccc(NC(=O)N3CCSc4ncccc43)c2)cc1 | inactive |  |
| Cc1ccc(NCc2cccn2-c2nnc(N3CCC(C(=O)NCCc4ccc(Cl)cc4)CC3)s2)cc1 | inconclusive [activator, single point] |  |
| Cc1ccccc1OCC(=O)NNC(=S)NC(=O)c1ccco1 | inconclusive [activator, partial curve, poor fit] |  |
| Cc1nc(Nc2c(Cl)cccc2Cl)sc1C(=O)Nc1ccccc1 | inactive |  |
| CCCCN(CC)CCCNC(=O)c1c(C)oc2ncnc(N3CCOCC3)c12 | inactive |  |
| COc1ccc(CC(=O)OCC(=O)N2CCN(S(=O)(=O)c3ccc(C)cc3C)CC2)cc1OC | inactive |  |
| Cc1cc(Nc2ccccc2Cl)nc(-c2ccccc2O)n1 | inconclusive [activator, single point] |  |
| CCOc1ccc(NC(=S)NCc2ccco2)cc1 | inconclusive [activator, single point] |  |
| COc1ccc(CCNC(=O)CCc2c(C)nc3c4c(C)cc(C)nc4nn3c2C)cc1OC | inactive |  |
| Nc1nc2ccccc2cc1C(=O)NCCCCc1ccccc1 | inconclusive [activator, single point] |  |
| O=C(NCc1cccc(Cl)c1)c1c2c(nc3ccccc13)C(=O)N(C1CCCCC1)C2 | inactive |  |
| C=CCNC(=S)N/N=C/c1ccc(C(F)(F)F)cc1 | inconclusive [activator, full curve] |  |
| COc1ccc(CC(=O)Nc2nc3c(s2)CC(C)CC3)cc1 (configuration not stated) | inconclusive [activator, single point] |  |
| COc1ccc(C2(CNC(=O)c3cc([N+](=O)[O-])cc([N+](=O)[O-])c3)CCCC2)cc1OC | inconclusive [activator, partial curve, poor fit] |  |
| c1ccc(-c2csc(-n3cnnn3)n2)cc1 | inactive |  |
| CN1OC[C@@H]2CN(S(=O)(=O)c3cccc4ccccc34)[C@H](c3ccc(-c4ccccc4)cc3)C[C@@H]21 | inactive |  |
| Cc1nn(Cc2ccccc2Cl)c(C)c1NC(=O)c1noc(C(C)C)c1[N+](=O)[O-] | inactive |  |

| SMILES | Potency | growth rescue |
| --- | --- | --- |
| COc1cccc(OCC(=O)Nc2ccccc2C(=O)Nc2ccc(C(=O)O)cc2)c1 | inconclusive [activator, single point] |  |
| CCCNC(=O)c1cc(C2CCCN(C(=O)C3CCCCC3)C2)on1 (configuration not stated) | inactive |  |
| Cc1ccc(S(=O)(=O)ON2C(=O)c3ccccc3C2=O)c(C)c1 | inactive |  |
| Cc1ccccc1Cn1c(CN2CCC(C(=O)NCc3ccc(Cl)cc3)CC2)cc2ccccc21 | inconclusive [activator, single point] |  |
| COC(=O)c1cccc2c1-c1ccccc1/C2=N/O | inactive |  |
| Cc1ccc(OCC(=O)N/N=C\c2c(C)[nH]n(-c3ccccc3)c2=O)c([N+](=O)[O-])c1 | inconclusive [activator, single point] |  |
| FC(F)Sc1nc2ccccc2[nH]1 | inconclusive [activator, partial curve] |  |
| Cc1nn(Cc2c(F)c(F)c(F)c(F)c2F)c(C)c1NC(=O)c1nn(C)c(C)c1Br | inconclusive [activator, partial curve, poor fit] |  |
| COc1ccc(NC(=S)Nc2cccc3ccccc23)cc1OC | inconclusive [activator, partial curve, poor fit] |  |
| Cc1ccc2c(CC(=O)N(Cc3ccc(N(C)C)cc3)Cc3ccco3)coc2c1C | inactive |  |
| COc1ccc(N2CCOCC2)c(NC(=O)c2cccc3ccccc23)c1 | inconclusive [activator, single point] |  |
| O=C1CSC2(C(=O)N(Cc3cccc(C(F)(F)F)c3)c3ccccc32)N1c1ccc(F)c(F)c1 (configuration not stated) | inactive |  |
| O=C(O/N=C(\c1ccccc1)c1ccccn1)c1ccc(Cl)c(Cl)c1 | inconclusive [activator, partial curve, poor fit] |  |
| O=C(Nc1ccccc1C(F)(F)F)c1ccc(F)c(S(=O)(=O)N2CCc3ccccc3C2)c1 | inconclusive [activator, single point] |  |
| Cn1cccc1CC(=O)NNC(=S)NC(=O)c1ccccc1Br | inconclusive [activator, partial curve, poor fit] |  |
| COc1cccc(NC(=O)Cn2cc3c(n2)CCCCC3)c1 | inconclusive [activator, partial curve] |  |
| COc1cc(NC(=O)CSc2nc3c(c(=O)n(C)c(=O)n3C)n2C)cc(OC)c1 | inactive |  |
| CC(C#N)Sc1ncnc2sc3c(c12)CCC3 (configuration not stated) | inactive |  |
| CCCCSc1nnc2c(n1)OC(c1ccc(Br)s1)Nc1ccccc1-2 (configuration not stated) | inactive |  |
| Cc1cc(C)n(-c2nc3ccccc3[nH]c2=O)n1 | inactive |  |
| Clc1ccc(-c2nnnn2-c2ccc(Cl)c(Cl)c2)cc1Cl | inconclusive [activator, partial curve] |  |
| COc1ccc(-c2ccc(C(=O)NCC(C)C)c3occc23)c(C)c1 | inactive |  |
| COc1c(CC=C(C)C)c(O)cc2oc(=O)c3c4ccc(O)cc4oc3c12 |  | inconclusive: -67.3% [activator] |
| O=S(=O)(Nc1ccc(O)c(Sc2nc3ccccc3s2)c1)c1cc(Cl)ccc1Cl | inconclusive [activator, partial curve, poor fit] |  |
